# Laboratory results published in the supplement of paper PMC8728848.
# This is one part of the list.
# B1: MAA (Maackia amurensis), P0DKL3 (protein)
# chain: MATSNSKPTQVLLATFLTFFFLLLNNVNSSDELSFTINNFVPNEADLLFQGEASVSSTGVLQLTRVENGQPQKYSVGRALYAAPVRIWDNTTGSVASFSTSFTFVVKAPNPDITSDGLAFYLAPPDSQIPSGSVSKYLGLFNNSNSDSSNQIVAVELDTYFAHSYDPWDPNYRHIGIDVNGIESIKTVQWDWINGGVAFATITYLAPNKTLIASLVYPSNQTTFSVAASVDLKEILPEWVRVGFSAATGYPTEVETHDVLSWSFTSTLEANCDAATENNVHIARYTA
# What was measured:
# Assay in all cases: glycan array binding signal (z-score within array); higher = stronger binding
# Conditions in all cases: glycan notation: IUPAC condensed, linker removed
# [1] = molecular target: Neu5Ac(a2-6)Gal(b1-4)GlcNAc
# Outline: (§1)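 Glycan array data were curated from 3228 arrays in the Consortium for Functional Glycomics database and kept only where the protein sequence was available. Glycan names were converted to IUPAC-condensed notation, and columns mapping to the same glycan were averaged. The binding signal is a within-array Z-score, averaged across arrays of the same protein sequence at different concentrations or buffers and across linkers. Negative Z-scores can be read as non-binding.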
# [2] = molecular target: Neu5Ac(a2-6)Gal(b1-4)GlcNAc(b1-2)Man
# Outline: as §1
# [3] = molecular target: Neu5Ac(a2-6)Gal(b1-4)GlcNAc(b1-2)Man(a1-3)Man(b1-4)GlcNAc(b1-4)GlcNAc
# Outline: as §1
# [4] = molecular target: Neu5Ac(a2-6)Gal(b1-4)GlcNAc(b1-2)Man(a1-3)[Gal(b1-4)GlcNAc(b1-2)Man(a1-6)]Man(b1-4)GlcNAc(b1-4)GlcNAc
# Outline: as §1
# [5] = molecular target: Neu5Ac(a2-6)Gal(b1-4)GlcNAc(b1-2)Man(a1-3)[GlcNAc(b1-2)Man(a1-6)]Man(b1-4)GlcNAc(b1-4)GlcNAc
# Outline: as §1
# [6] = molecular target: Neu5Ac(a2-6)Gal(b1-4)GlcNAc(b1-2)Man(a1-3)[GlcNAc(b1-4)][Neu5Ac(a2-6)Gal(b1-4)GlcNAc(b1-2)Man(a1-6)]Man(b1-4)GlcNAc(b1-4)GlcNAc
# Outline: as §1
# [7] = molecular target: Neu5Ac(a2-6)Gal(b1-4)GlcNAc(b1-2)Man(a1-3)[Man(a1-6)]Man(b1-4)GlcNAc(b1-4)GlcNAc
# Outline: as §1
# [8] = molecular target: Neu5Ac(a2-6)Gal(b1-4)GlcNAc(b1-2)Man(a1-3)[Neu5Ac(a2-3)Gal(b1-4)GlcNAc(b1-2)Man(a1-6)]Man(b1-4)GlcNAc(b1-4)GlcNAc
# Outline: as §1
# [9] = molecular target: Neu5Ac(a2-6)Gal(b1-4)GlcNAc(b1-2)Man(a1-3)[Neu5Ac(a2-6)Gal(b1-4)GlcNAc(b1-2)Man(a1-6)]Man(b1-4)GlcNAc(b1-4)GlcNAc
# Outline: as §1
# [10] = molecular target: Neu5Ac(a2-6)Gal(b1-4)GlcNAc(b1-2)Man(a1-3)[Neu5Ac(a2-6)Gal(b1-4)GlcNAc(b1-2)Man(a1-6)]Man(b1-4)GlcNAc(b1-4)[Fuc(a1-6)]GlcNAc
# Outline: as §1
# [11] = molecular target: Neu5Ac(a2-6)Gal(b1-4)GlcNAc(b1-2)Man(a1-6)Man(b1-4)GlcNAc(b1-4)GlcNAc
# Outline: as §1
# [12] = molecular target: Neu5Ac(a2-6)Gal(b1-4)GlcNAc(b1-2)Man(a1-6)[Gal(b1-4)GlcNAc(b1-2)Man(a1-3)]Man(b1-4)GlcNAc(b1-4)GlcNAc
# Outline: as §1
# [13] = molecular target: Neu5Ac(a2-6)Gal(b1-4)GlcNAc(b1-2)Man(a1-6)[GlcNAc(b1-2)Man(a1-3)]Man(b1-4)GlcNAc(b1-4)GlcNAc
# Outline: as §1
# [14] = molecular target: Neu5Ac(a2-6)Gal(b1-4)GlcNAc(b1-2)Man(a1-6)[Man(a1-3)]Man(b1-4)GlcNAc(b1-4)GlcNAc
# Outline: as §1
# [15] = molecular target: Neu5Ac(a2-6)Gal(b1-4)GlcNAc(b1-2)[Neu5Ac(a2-6)Gal(b1-4)GlcNAc(b1-4)]Man(a1-3)[GlcNAc(b1-4)][Neu5Ac(a2-6)Gal(b1-4)GlcNAc(b1-2)[Neu5Ac(a2-6)Gal(b1-4)GlcNAc(b1-6)]Man(a1-6)]Man(b1-4)GlcNAc(b1-4)GlcNAc
# Outline: as §1
# [16] = molecular target: Neu5Ac(a2-6)Gal(b1-4)GlcNAc(b1-2)[Neu5Ac(a2-6)Gal(b1-4)GlcNAc(b1-4)]Man(a1-3)[GlcNAc(b1-4)][Neu5Ac(a2-6)Gal(b1-4)GlcNAc(b1-4)Man(a1-6)]Man(b1-4)GlcNAc(b1-4)GlcNAc
# Outline: as §1
# [17] = molecular target: Neu5Ac(a2-6)Gal(b1-4)GlcNAc(b1-2)[Neu5Ac(a2-6)Gal(b1-4)GlcNAc(b1-6)]Man(a1-6)[Neu5Ac(a2-6)Gal(b1-4)GlcNAc(b1-2)Man(a1-3)][GlcNAc(b1-4)]Man(b1-4)GlcNAc(b1-4)GlcNAc
# Outline: as §1
# [18] = molecular target: Neu5Ac(a2-6)Gal(b1-4)GlcNAc(b1-3)Gal(b1-3)GlcNAc
# Outline: as §1
# [19] = molecular target: Neu5Ac(a2-6)Gal(b1-4)GlcNAc(b1-3)Gal(b1-4)GlcNAc
# Outline: as §1
# [20] = molecular target: Neu5Ac(a2-6)Gal(b1-4)GlcNAc(b1-3)Gal(b1-4)GlcNAc(b1-2)Man(a1-3)[Neu5Ac(a2-6)Gal(b1-4)GlcNAc(b1-3)Gal(b1-4)GlcNAc(b1-2)Man(a1-6)]GalNAc
# Outline: as §1
# [21] = molecular target: Neu5Ac(a2-6)Gal(b1-4)GlcNAc(b1-3)Gal(b1-4)GlcNAc(b1-3)Gal(b1-4)GlcNAc
# Outline: as §1
# [22] = molecular target: Neu5Ac(a2-6)Gal(b1-4)GlcNAc(b1-3)Gal(b1-4)GlcNAc(b1-3)Gal(b1-4)GlcNAc(b1-2)Man(a1-3)[Neu5Ac(a2-6)Gal(b1-4)GlcNAc(b1-3)Gal(b1-4)GlcNAc(b1-3)Gal(b1-4)GlcNAc(b1-2)Man(a1-6)]GalNAc
# Outline: as §1
# [23] = molecular target: Neu5Ac(a2-6)Gal(b1-4)GlcNAc(b1-3)Gal(b1-4)GlcNAc(b1-3)GalNAc
# Outline: as §1
binder,measurement,setting,value
B1,glycan array binding signal (z-score),[1],-0.23
same,glycan array binding signal (z-score),[2],-0.273
same,glycan array binding signal (z-score),[3],-0.196
same,glycan array binding signal (z-score),[4],-0.191
same,glycan array binding signal (z-score),[5],-0.16
same,glycan array binding signal (z-score),[6],-0.172
same,glycan array binding signal (z-score),[7],-0.162
same,glycan array binding signal (z-score),[8],0.622
same,glycan array binding signal (z-score),[9],-0.206
same,glycan array binding signal (z-score),[10],-0.114
same,glycan array binding signal (z-score),[11],-0.21
same,glycan array binding signal (z-score),[12],-0.197
same,glycan array binding signal (z-score),[13],-0.221
same,glycan array binding signal (z-score),[14],-0.124
same,glycan array binding signal (z-score),[15],-0.238
same,glycan array binding signal (z-score),[16],-0.201
same,glycan array binding signal (z-score),[17],-0.247
same,glycan array binding signal (z-score),[18],-0.19
same,glycan array binding signal (z-score),[19],-0.169
same,glycan array binding signal (z-score),[20],0.044
same,glycan array binding signal (z-score),[21],-0.289
same,glycan array binding signal (z-score),[22],0.284
same,glycan array binding signal (z-score),[23],-0.224
